Test results reported in patent US7423058B2, “Inhibitors of hepatitis C virus NS3 protease” (Schering Corporation, priority 2004, dated 2008).

target: Recombinant heterodimeric HCV NS3/NS4A protease (strain 1a) (Hepatitis C virus genotype 1a, UniProt P27958); assay: Spectrophotometric assay for HCV protease inhibitory activity (chromogenic ester substrates); type: biochemical; settings: Table 3, Esters; read-out: Ki* Range

| SMILES | Ki |
| --- | --- |
| COC(=O)C1(NC(=O)N[C@H](C(=O)N2C[C@H]3[C@@H]([C@H]2C(=O)NC(CC2CC2)C(=O)C(N)=O)C3(C)C)C(C)(C)C)CCC(OC(C)=O)CC1 (stereo partly drawn) [compound 4650] | > 250 nM |
| CC1(C)[C@@H]2[C@@H](C(=O)NC(CC3CCC3)C(=O)C(N)=O)N(C(=O)[C@@H](NC(=O)NC3(C(=O)OCc4ccc5ccccc5c4)CCCCC3)C3CCCCC3)C[C@@H]21 (stereo partly drawn) [compound 4651] | > 250 nM |
| CCCCC(NC(=O)[C@@H]1[C@H]2CC(C)(C)O[C@H]2CN1C(=O)[C@@H](NC(=O)N[C@H](C(=O)OCc1ccccc1)C(C)C)C(C)(C)C)C(=O)C(=O)NCCC(=O)OC(C)(C)C (stereo partly drawn) [compound 4652] | > 250 nM |
| CCOC(=O)CNC(=O)N[C@H](C(=O)N1C[C@H]2[C@@H]([C@H]1C(=O)NC(CC1CCC1)C(=O)C(N)=O)C2(C)C)C1CCCCC1 (stereo partly drawn) [compound 4653] | > 250 nM |
| CC(C)(C)[C@H](NC(=O)NC1(C(=O)OCc2ccccc2)Cc2ccccc2C1)C(=O)N1C[C@H]2[C@@H]([C@H]1C(=O)NC(CC1CCC1)C(=O)C(N)=O)C2(C)C (stereo partly drawn) [compound 4654] | > 250 nM |
| CC(C)(C)[C@H](NC(=O)NC1(C(=O)OCc2ccccc2)CCOCC1)C(=O)N1C[C@H]2[C@@H]([C@H]1C(=O)NC(CC1CCC1)C(=O)C(N)=O)C2(C)C (stereo partly drawn) [compound 4655] | > 250 nM |
| CCC(C)C(NC(=O)N[C@H](C(=O)N1C[C@H]2[C@@H]([C@H]1C(=O)NC(CC1CC1)C(=O)C(N)=O)C2(C)C)C1CCCCC1)C(=O)OCc1ccccc1 (stereo partly drawn) [compound 4657] | > 250 nM |
| CC(C)C[C@H](NC(=O)N[C@H](C(=O)N1C[C@H]2[C@@H]([C@H]1C(=O)NC(CC1CCC1)C(=O)C(N)=O)C2(C)C)C(C)(C)C)C(=O)OCc1ccccc1 (stereo partly drawn) [compound 4658] | > 250 nM |
| CC(C)[C@H](NC(=O)N[C@H](C(=O)N1C[C@@H]2OC(C)(C)C[C@@H]2[C@H]1C(=O)NC(CC1CC1)C(=O)C(=O)NCCC(=O)OC(C)(C)C)C1CCCCC1)C(=O)OCc1ccccc1 (stereo partly drawn) [compound 4659] | > 250 nM |
| CC(C)(C)[C@H](NC(=O)NC1(C(=O)OCc2ccc(-c3ccccc3)cc2)CCCCC1)C(=O)N1C[C@H]2[C@@H]([C@H]1C(=O)NC(CC1CC1)C(=O)C(N)=O)C2(C)C (stereo partly drawn) [compound 4661] | > 250 nM |
| CC(C)NC(=O)C(=O)C(CC1CC1)NC(=O)[C@@H]1[C@@H]2[C@H](CN1C(=O)[C@@H](NC(=O)N[C@H](C(=O)OC(C)(C)C)C(C)(C)C)C(C)(C)C)C2(C)C (stereo partly drawn) [compound 4662] | > 250 nM |
| CC(C)(C)[C@@H](NC(=O)N[C@@H](C(=O)N1C[C@H]2[C@@H]([C@H]1C(=O)NC(CC1CCC1)C(=O)C(N)=O)C2(C)C)C(C)(C)C)C(=O)OC1Cc2ccccc2C1 (stereo partly drawn) [compound 4663] | > 250 nM |
| CC1(C)[C@@H]2[C@@H](C(=O)NC(CC3CCC3)C(=O)C(N)=O)N(C(=O)[C@@H](NC(=O)NC3(C(=O)OCc4ccc(-c5ccccc5)cc4)CCCCC3)C3CCCCC3)C[C@@H]21 (stereo partly drawn) [compound 4665] | > 250 nM |

same assay, conditions: Table 4: Carboxylic Acids; read-out: Ki* Range

| SMILES | Ki |
| --- | --- |
| CC(C)(C)[C@H](NC(=O)N[C@H](C(=O)N1C[C@H]2[C@@H]([C@H]1C(=O)NC(CC1CCC1)C(=O)C(N)=O)C2(C)C)C(C)(C)C)C(=O)O (stereo partly drawn) [compound 4703] | < 75 nM |

same assay, conditions: Table 5: Amides; read-out: Ki* Range

| SMILES | Ki |
| --- | --- |
| CC(C)[C@H](NC(=O)N[C@H](C(=O)N1C[C@H]2[C@@H]([C@H]1C(=O)NC(CC1CC1)C(=O)C(N)=O)C2(C)C)C(C)(C)C)C(=O)NS(=O)(=O)c1ccccc1 (stereo partly drawn) [compound 4800] | < 75 nM |
| CC[C@H](NC(=O)N[C@H](C(=O)N1C[C@H]2[C@@H]([C@H]1C(=O)NC(CC1CC1)C(=O)C(N)=O)C2(C)C)C(C)(C)C)C(=O)OC(C)(C)C (stereo partly drawn) [compound 4857] | < 75 nM |

same assay, conditions: Table 6; read-out: Ki* range

| SMILES | Ki |
| --- | --- |
| CC(C)(C)[C@H](NC(=O)NC1(Cc2ccccn2)CCCCC1)C(=O)N1C[C@H]2[C@@H]([C@H]1C(=O)NC(CC1CC1)C(=O)C(N)=O)C2(C)C (stereo partly drawn) [compound 4921] | < 75 nM |
| CC(C)(C)[C@H](NC(=O)NC1(Cc2cccs2)CCCCC1)C(=O)N1C[C@H]2[C@@H]([C@H]1C(=O)NC(CC1CC1)C(=O)C(N)=O)C2(C)C (stereo partly drawn) [compound 4922] | < 75 nM |
| CC(C)(C)[C@H](NC(=O)NC1(Cc2ccsc2)CCCCC1)C(=O)N1C[C@H]2[C@@H]([C@H]1C(=O)NC(CC1CC1)C(=O)C(N)=O)C2(C)C (stereo partly drawn) [compound 4923] | < 75 nM |
| CC(C)(C)[C@H](NC(=O)NC1(Cc2nccs2)CCCCC1)C(=O)N1C[C@H]2[C@@H]([C@H]1C(=O)NC(CC1CC1)C(=O)C(N)=O)C2(C)C (stereo partly drawn) [compound 4925] | < 75 nM |
| CC(C)(C)[C@H](NC(=O)NC1(Cc2nccs2)CCCCC1)C(=O)N1C[C@H]2[C@@H]([C@H]1C(=O)NC(CC1CCC1)C(=O)C(N)=O)C2(C)C (stereo partly drawn) [compound 4926] | < 75 nM |
| CC1(C)[C@@H]2[C@@H](C(=O)NC(CC3CC3)C(=O)C(N)=O)N(C(=O)[C@@H](NC(=O)NC3(Cc4cccnc4)CCCCC3)C3CCCCC3)C[C@@H]21 (stereo partly drawn) [compound 4927] | < 75 nM |
| CC(C)(C)[C@H](NC(=O)NC1(Cc2nccs2)CCCCC1)C(=O)N1C[C@H]2[C@@H]([C@H]1C(=O)NC(CC1CC1)C(=O)C(N)=O)C2(Cl)Cl (stereo partly drawn) [compound 4928] | < 75 nM |
| CC(C)(C)[C@H](NC(=O)NC1(Cc2nccs2)CCCCC1)C(=O)N1C[C@H]2[C@@H]([C@H]1C(=O)NC(CC1CCC1)C(=O)C(N)=O)C2(Cl)Cl (stereo partly drawn) [compound 4929] | < 75 nM |
| C#CCCC(NC(=O)[C@@H]1[C@@H]2[C@H](CN1C(=O)[C@@H](NC(=O)NC1(Cc3ccccc3)CCCCC1)C(C)(C)C)C2(C)C)C(=O)C(=O)NCC=C (stereo partly drawn) [compound 4930] | < 75 nM |
| CC(C)(C)[C@H](NC(=O)NC1(C(F)(F)c2ccccc2)CCCCC1)C(=O)N1C[C@H]2[C@@H]([C@H]1C(=O)NC(CC1CC1)C(=O)C(N)=O)C2(C)C (stereo partly drawn) [compound 4931] | < 75 nM |
| CC1(C)[C@@H]2[C@@H](C(=O)NC(CC3CC3)C(=O)C(N)=O)N(C(=O)[C@@H](NC(=O)NC3(Cc4ccccn4)CCCCC3)C3CCCCC3)C[C@@H]21 (stereo partly drawn) [compound 4933] | < 75 nM |
| CC1(C)[C@@H]2[C@@H](C(=O)NC(CC3CC3)C(=O)C(N)=O)N(C(=O)[C@@H](NC(=O)NC3(Cc4cccc(O)c4)CCCCC3)C3CCCCC3)C[C@@H]21 (stereo partly drawn) [compound 4934] | < 75 nM |
| C#CCCC(NC(=O)[C@@H]1[C@@H]2[C@H](CN1C(=O)[C@@H](NC(=O)NC1(Cc3cccc(OC)c3)CCCCC1)C(C)(C)C)C2(C)C)C(=O)C(=O)NCC=C (stereo partly drawn) [compound 4935] | < 75 nM |
| C#CCCC(NC(=O)[C@@H]1[C@@H]2[C@H](CN1C(=O)[C@@H](NC(=O)NC1(Cc3ccccc3)CCCCC1)C(C)(C)C)C2(C)C)C(=O)C(N)=O (stereo partly drawn) [compound 4936] | < 75 nM |
| CC(C)(C)[C@H](NC(=O)NC1(Cc2cccc(O)c2)CCCCC1)C(=O)N1C[C@H]2[C@@H]([C@H]1C(=O)NC(CC1CC1)C(=O)C(N)=O)C21CCCC1 (stereo partly drawn) [compound 4937] | < 75 nM |
| CC1(C)[C@@H]2[C@@H](C(=O)NC(CC3CC3)C(=O)C(N)=O)N(C(=O)[C@@H](NC(=O)NC3(Cc4cccs4)CCCCC3)C3CCCCC3)C[C@@H]21 (stereo partly drawn) [compound 4938] | < 75 nM |

| SMILES | Ki |
| --- | --- |
| CC(C)(C)[C@H](NC(=O)NC1(Cc2ccccn2)CCCCC1)C(=O)N1C[C@H]2[C@@H]([C@H]1C(=O)NC(CC1CCC1)C(=O)C(N)=O)C2(C)C (stereo partly drawn) [compound 4939] | < 75 nM |
| CC1(C)[C@@H]2[C@@H](C(=O)NC(CC3CC3)C(=O)C(N)=O)N(C(=O)[C@@H](NC(=O)NC3(Cc4ccsc4)CCCCC3)C3CCCCC3)C[C@@H]21 (stereo partly drawn) [compound 4940] | < 75 nM |
| CC(C)(C)[C@H](NC(=O)NC1(Cc2ccccn2)CCCCC1)C(=O)N1C[C@H]2[C@@H]([C@H]1C(=O)NC(CC1CC1)C(=O)C(N)=O)C21CCCC1 (stereo partly drawn) [compound 4941] | < 75 nM |
| CC(C)(C)[C@H](NC(=O)NC1(Cc2ccccc2)CCC(F)(F)CC1)C(=O)N1C[C@H]2[C@@H]([C@H]1C(=O)NC(CC1CC1)C(=O)C(N)=O)C2(C)C (stereo partly drawn) [compound 4942] | < 75 nM |
| CC(C)(C)[C@H](NC(=O)NC1(Cc2cccc(O)c2)CCCCC1)C(=O)N1C[C@H]2[C@@H]([C@H]1C(=O)NC(CC1CCC1)C(=O)C(N)=O)C2(C)C (stereo partly drawn) [compound 4943] | < 75 nM |
| CC(C)(C)[C@H](NC(=O)NC1(Cc2cccnc2)CCCCC1)C(=O)N1C[C@H]2[C@@H]([C@H]1C(=O)NC(CC1CC1)C(=O)C(N)=O)C2(C)C (stereo partly drawn) [compound 4944] | < 75 nM |
| COc1cccc(CC2(NC(=O)N[C@H](C(=O)N3C[C@H]4[C@@H]([C@H]3C(=O)NC(CC3CC3)C(=O)C(N)=O)C4(C)C)C(C)(C)C)CCCCC2)c1 (stereo partly drawn) [compound 4945] | < 75 nM |
| C#CCCC(NC(=O)[C@@H]1[C@@H]2[C@H](CN1C(=O)[C@@H](NC(=O)NC1(Cc3ccccn3)CCCCC1)C(C)(C)C)C2(C)C)C(=O)C(=O)NCC=C (stereo partly drawn) [compound 4946] | < 75 nM |
| CC(C)(C)[C@H](NC(=O)NC1(Cc2ccccn2)CCCCC1)C(=O)N1C[C@H]2[C@@H]([C@H]1C(=O)NC(CCC(F)(F)F)C(=O)C(N)=O)C2(C)C (stereo partly drawn) [compound 4947] | < 75 nM |
| CC(C)[C@@H](Cc1nccs1)NC(=O)N[C@H](C(=O)N1C[C@H]2[C@@H]([C@H]1C(=O)NC(CC1CCC1)C(=O)C(N)=O)C2(C)C)C(C)(C)C (stereo partly drawn) [compound 4948] | < 75 nM |
| CC(C)[C@@H](Cc1nccs1)NC(=O)N[C@H](C(=O)N1C[C@H]2[C@@H]([C@H]1C(=O)NC(CC1CC1)C(=O)C(N)=O)C2(C)C)C(C)(C)C (stereo partly drawn) [compound 4949] | < 75 nM |
| C=C(c1ccccc1)[C@@H](NC(=O)N[C@H](C(=O)N1C[C@H]2[C@@H]([C@H]1C(=O)NC(CC1CC1)C(=O)C(N)=O)C2(C)C)C(C)(C)C)C(C)C (stereo partly drawn) [compound 4950] | < 75 nM |
| CC(C)(C)[C@H](NC(=O)NC1(Cc2ccccc2)CCSCC1)C(=O)N1C[C@H]2[C@@H]([C@H]1C(=O)NC(CC1CC1)C(=O)C(N)=O)C2(C)C (stereo partly drawn) [compound 4951] | < 75 nM |
| C=CCNC(=O)C(=O)C(CCC(F)(F)F)NC(=O)[C@@H]1[C@@H]2[C@H](CN1C(=O)[C@@H](NC(=O)NC1(Cc3nccs3)CCCCC1)C(C)(C)C)C2(C)C (stereo partly drawn) [compound 4952] | < 75 nM |
| CC(C)[C@@H](Cc1ccccc1)NC(=O)N[C@H](C(=O)N1C[C@H]2[C@@H]([C@H]1C(=O)NC(CC1CC1)C(=O)C(N)=O)C2(C)C)C(C)(C)C (stereo partly drawn) [compound 4953] | < 75 nM |
| CC(c1ccccc1)C(C)(C)NC(=O)N[C@H](C(=O)N1C[C@H]2[C@@H]([C@H]1C(=O)NC(CC1CC1)C(=O)C(N)=O)C2(C)C)C(C)(C)C (stereo partly drawn) [compound 4954] | < 75 nM |
